Test results from the supplement of paper PMC4967469.
IC50 is the fitted dose that halves viability relative to control wells, and lower means more sensitive; a fit beyond the top or the lowest dose is shown as a bound at that dose. AUC, from the same fit, is the share of area under the viability curve across the 256-fold dose range; values near 1 show little effect. For some assays here: A top dose marked as inferred was derived from the fitted curves, not read from the paper.

Tests used:
Assay in all cases: Viability of human cancer cell lines after 72 h of drug (GDSC screen)
BMX-IN-1 (QL-XII-61) = compound: C=CC(=O)Nc1cc(-n2c(=O)ccc3cnc4ccc(-c5ccc(NS(C)(=O)=O)cc5)cc4c32)ccc1C [BMX-IN-1 (QL-XII-61)]; conditions: top dose 10 µM; top dose inferred
Description: (§1)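 Human cancer cell lines in 384-well plates, medium with 10% serum, drug for 72 h over a 256-fold dose range (nine 2-fold or five 4-fold steps up to the top dose). Adherent lines were fixed and stained with the nucleic acid dye Syto60, suspension lines read with resazurin; signal relative to control wells, capped at 0 and 100%. One two-parameter sigmoid per drug and line, fitted in a mixed model over all curves with the slope shared within a line.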

17-AAG = compound: C=CCNC1=C2C[C@@H](C)C[C@H](OC)[C@H](O)[C@@H](C)/C=C(\C)[C@H](OC(N)=O)[C@@H](OC)/C=C\C=C(/C)C(=O)NC(=CC1=O)C2=O [17-AAG]; conditions: top dose 1 µM
Description: as §1

CCT018159 = compound: CCc1cc(-c2n[nH]c(C)c2-c2ccc3c(c2)OCCO3)c(O)cc1O [CCT018159]; conditions: top dose 10 µM; top dose inferred
Description: as §1

BIX02189 = compound: CN(C)Cc1cccc(N=C(c2ccccc2)c2c(O)[nH]c3cc(C(=O)N(C)C)ccc23)c1 [BIX02189]; conditions: top dose 20 µM; top dose inferred
Description: as §1

Dimethyloxalylglycine = compound: COC(=O)CNC(=O)C(=O)OC [Dimethyloxalylglycine]; conditions: top dose 4000 µM; top dose inferred
Description: as §1

Doxorubicin = compound: COc1cccc2c1C(=O)c1c(O)c3c(c(O)c1C2=O)C[C@@](O)(C(=O)CO)C[C@@H]3O[C@H]1C[C@H](N)[C@H](O)[C@H](C)O1 [Doxorubicin]; conditions: top dose 1.024 µM
Description: as §1

OSI-027 = compound: COc1cccc2cc(-c3nc([C@H]4CC[C@H](C(=O)O)CC4)n4ncnc(N)c34)[nH]c12 [OSI-027]; conditions: top dose 20 µM
Description: as §1

Vismodegib = compound: CS(=O)(=O)c1ccc(C(=O)Nc2ccc(Cl)c(-c3ccccn3)c2)c(Cl)c1 [Vismodegib]; conditions: top dose 10 µM; top dose inferred
Description: as §1

VX-11e = compound: Cc1cnc(Nc2ccc(F)cc2Cl)nc1-c1c[nH]c(C(=O)N[C@H](CO)c2cccc(Cl)c2)c1 [VX-11e]; conditions: top dose 5.12 µM; top dose inferred
Description: as §1

TG101348 = compound: Cc1cnc(Nc2ccc(OCCN3CCCC3)cc2)nc1Nc1cccc(S(=O)(=O)NC(C)(C)C)c1 [TG101348]; conditions: top dose 10.24 µM
Description: as §1

UNC1215 = compound: O=C(c1ccc(C(=O)N2CCC(N3CCCC3)CC2)c(Nc2ccccc2)c1)N1CCC(N2CCCC2)CC1 [UNC1215]; conditions: top dose 1 µM; top dose inferred
Description: as §1

Row | Cell Line | AUC (BMX-IN-1 (QL-XII-61)) | IC50 (BMX-IN-1 (QL-XII-61)) [µM] | AUC (17-AAG) | IC50 (17-AAG) [µM] | AUC (CCT018159) | IC50 (CCT018159) [µM] | AUC (BIX02189) | IC50 (BIX02189) [µM] | AUC (Dimethyloxalylglycine) | IC50 (Dimethyloxalylglycine) [µM] | AUC (Doxorubicin) | IC50 (Doxorubicin) [µM] | AUC (OSI-027) | IC50 (OSI-027) [µM] | AUC (Vismodegib) | IC50 (Vismodegib) [µM] | AUC (VX-11e) | IC50 (VX-11e) [µM] | AUC (TG101348) | IC50 (TG101348) [µM] | AUC (UNC1215) | IC50 (UNC1215) [µM]
1 | CW-2 (large intestine, adherent) | 0.986 | > 10 | 0.931 | > 1 | 0.891 | > 10 | 0.976 | > 20 | 0.977 | > 4000 | 0.989 | > 1.02 | 0.924 | > 20 | 0.987 | > 10 | 0.939 | > 5.12 | 0.858 | 9.45 | 0.988 | > 1
2 | BICR10 (head and neck, adherent) | 0.958 | > 10 | 0.661 | 0.188 | 0.909 | > 10 | 0.985 | > 20 | 0.456 | 186 | 0.929 | > 1.02 | 0.964 | > 20 | 0.981 | > 10 | 0.985 | > 5.12 | 0.908 | > 10.2 | 0.983 | > 1
3 | EW-16 (Ewing sarcoma, adherent) | 0.873 | > 10 | 0.861 | 0.913 | 0.915 | > 10 | 0.913 | > 20 | 0.571 | 395 | 0.14 | 0.00444 | 0.303 | 0.34 | 0.933 | > 10 | 0.972 | > 5.12 | 0.793 | 4.93 | 0.981 | > 1
4 | Hs-578-T (breast, adherent) | 0.982 | > 10 | 0.541 | 0.0815 | 0.955 | > 10 | 0.98 | > 20 | 0.794 | 1970 | 0.921 | > 1.02 | 0.987 | > 20 | 0.979 | > 10 | 0.987 | > 5.12 | 0.956 | > 10.2 | 0.985 | > 1
5 | CAL-33 (head and neck, adherent) | 0.947 | > 10 | 0.884 | > 1 | 0.803 | 4.96 | 0.946 | > 20 | 0.511 | 269 | 0.456 | 0.0486 | 0.32 | 0.394 | 0.955 | > 10 | 0.971 | > 5.12 | 0.896 | > 10.2 | 0.985 | > 1
6 | ESS-1 (endometrium, adherent) | 0.911 | > 10 | 0.696 | 0.208 | 0.937 | > 10 | 0.99 | > 20 | 0.436 | 171 | 0.222 | 0.011 | 0.85 | 12.9 | 0.99 | > 10 | 0.989 | > 5.12 | 0.743 | 2.91 | 0.987 | > 1
7 | SU8686 (pancreas, adherent) | 0.932 | > 10 | 0.605 | 0.126 | 0.94 | > 10 | 0.978 | > 20 | 0.581 | 428 | 0.716 | 0.284 | 0.82 | 13.4 | 0.985 | > 10 | 0.976 | > 5.12 | 0.986 | > 10.2 | 0.984 | > 1
8 | RCM-1 (large intestine, adherent) | 0.983 | > 10 | 0.843 | 0.95 | 0.927 | > 10 | 0.976 | > 20 | 0.72 | 1220 | 0.914 | > 1.02 | 0.939 | > 20 | 0.976 | > 10 | 0.852 | > 5.12 | 0.967 | > 10.2 | 0.983 | > 1
9 | NCI-H28 (mesothelioma, adherent) | 0.957 | > 10 | 0.582 | 0.113 | 0.869 | > 10 | 0.964 | > 20 | 0.749 | 1660 | 0.888 | > 1.02 | 0.936 | > 20 | 0.958 | > 10 | 0.969 | > 5.12 | 0.895 | > 10.2 | 0.978 | > 1
10 | UACC-893 (breast, adherent) | 0.98 | > 10 | 0.753 | 0.44 | 0.943 | > 10 | 0.977 | > 20 | 0.898 | > 4000 | 0.798 | 0.688 | 0.446 | 0.845 | 0.976 | > 10 | 0.93 | > 5.12 | 0.944 | > 10.2 | 0.98 | > 1
11 | NY (osteosarcoma, adherent) | 0.976 | > 10 | 0.713 | 0.248 | 0.872 | 9.28 | 0.989 | > 20 | 0.552 | 346 | 0.718 | 0.263 | 0.986 | > 20 | 0.955 | > 10 | 0.988 | > 5.12 | 0.98 | > 10.2 | 0.987 | > 1
12 | NCI-H1770 (non-small cell lung carcinoma, suspension) | 0.86 | 6.76 | 0.846 | 0.599 | 0.973 | > 10 | 0.988 | > 20 | 0.884 | 3390 | 0.611 | 0.124 | 0.974 | > 20 | 0.992 | > 10 | 0.758 | 1.58 | 0.917 | > 10.2 | 0.989 | > 1
13 | TGBC1TKB (biliary tract, adherent) | 0.986 | > 10 | 0.479 | 0.0548 | 0.966 | > 10 | 0.989 | > 20 | 0.694 | 869 | 0.87 | 0.942 | 0.912 | > 20 | 0.985 | > 10 | 0.988 | > 5.12 | 0.987 | > 10.2 | 0.983 | > 1
14 | CaR-1 (large intestine, adherent) | 0.974 | > 10 | 0.497 | 0.0612 | 0.952 | > 10 | 0.964 | > 20 | 0.481 | 216 | 0.904 | > 1.02 | 0.731 | 8.11 | 0.916 | > 10 | 0.978 | > 5.12 | 0.955 | > 10.2 | 0.975 | > 1
15 | RPMI-8866 (chronic myeloid leukaemia, suspension) | 0.921 | > 10 | 0.852 | 0.687 | 0.805 | 4.63 | 0.856 | 14.3 | 0.869 | 3250 | 0.695 | 0.215 | 0.731 | 5.35 | 0.805 | 4.61 | 0.86 | 3.79 | 0.824 | 5.53 | 0.987 | > 1
16 | H2461 (mesothelioma, adherent) | 0.943 | > 10 | 0.816 | 0.741 | 0.881 | > 10 | 0.978 | > 20 | 0.678 | 898 | 0.736 | 0.363 | 0.893 | > 20 | 0.983 | > 10 | 0.981 | > 5.12 | 0.955 | > 10.2 | 0.972 | > 1
17 | NCI-H2141 (small cell lung carcinoma, suspension) | 0.908 | > 10 | 0.978 | > 1 | 0.982 | > 10 | 0.982 | > 20 | 0.571 | 389 | 0.827 | 0.602 | 0.707 | 4.7 | 0.991 | > 10 | 0.99 | > 5.12 | 0.895 | > 10.2 | 0.973 | > 1
18 | Calu-3 (lung adenocarcinoma, adherent) | 0.98 | > 10 | 0.933 | > 1 | 0.927 | > 10 | 0.983 | > 20 | 0.353 | 87.5 | 0.457 | 0.0474 | 0.357 | 0.452 | 0.973 | > 10 | 0.983 | > 5.12 | 0.982 | > 10.2 | 0.981 | > 1
19 | NCI-SNU-5 (stomach, suspension) | 0.988 | > 10 | 0.418 | 0.0373 | 0.86 | 8.57 | 0.989 | > 20 | 0.872 | 3890 | 0.813 | 0.561 | 0.941 | > 20 | 0.988 | > 10 | 0.989 | > 5.12 | 0.989 | > 10.2 | 0.979 | > 1
20 | LB1047-RCC (kidney, adherent) | 0.943 | > 10 | 0.493 | 0.0595 | 0.905 | > 10 | 0.926 | > 20 | 0.282 | 55.3 | 0.42 | 0.0375 | 0.453 | 0.912 | 0.982 | > 10 | 0.944 | > 5.12 | 0.849 | 9.22 | 0.977 | > 1
21 | BL-41 (Burkitt lymphoma, suspension) | 0.705 | 2 | 0.946 | > 1 | 0.874 | 6 | 0.835 | 8.99 | 0.239 | 55.6 | 0.596 | 0.11 | 0.034 | < 0.0781 | 0.937 | > 10 | 0.924 | 4.76 | 0.589 | 1.06 | 0.991 | > 1
22 | SK-MEL-3 (melanoma, adherent) | 0.981 | > 10 | 0.87 | > 1 | 0.97 | > 10 | 0.915 | > 20 | 0.533 | 311 | 0.62 | 0.144 | 0.565 | 1.94 | 0.982 | > 10 | 0.844 | 4.54 | 0.827 | 7.64 | 0.983 | > 1
23 | M059J (glioma, adherent) | 0.955 | > 10 | 0.524 | 0.0731 | 0.935 | > 10 | 0.95 | > 20 | 0.563 | 377 | 0.419 | 0.0376 | 0.734 | 6.2 | 0.98 | > 10 | 0.94 | > 5.12 | 0.865 | > 10.2 | 0.984 | > 1
